Test results from PubChem BioAssay AID2060326 (Molecular Pharmacology Branch, DTP, NCI, 2025).
The source holds more than one record for some entries. The other results are left out here. An entry can have further records. Results that share an entry repeat one measurement across runs, samples, wells, individuals or studies. Additions like (4×) stand for listed records that agree.

System: MDA-MB-468 multi-cell spheroids, viability
Assay: Anticancer human tumor MDA-MB-468 cell line growth inhibition [IpAb];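 also: spheroids exposed to agents for seven days; 100% = DMSO vehicle control viability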
Settings: stronger effect = lower value
From the text: Combinatorial screen of targeted agents with ipatasertib and abemaciclib in multi-cell type tumor spheroids
A high-throughput screen of multi-cell type tumor spheroids was designed to identify active combinations of targeted small molecules and ipatasertib or abemaciclib. Complex spheroids include a stromal component modeled by human endothelial cells (HUVEC) and fibroblasts modeled by human mesenchymal stem cells (MSCs). The concentration ranges selected for each drug and investigational agent were based upon clinically achievable concentrations if the clinical Cmax of the agent was known.
Compounds. The drugs and investigational agents: ipatasertib (NSC767898), abemaciclib(NSC768073), selumetinib (NSC741078), trametinib (758246), adavosertib (NSC754352), everolimus (NSC733504), sapanisertib (NSC764658), vemurafenib (NSC761431), venetoclax (NSC766270), copanlisib (NSC809693), apelisib (NSC765974), palbociblib (NSC758247), vemurafenib (NSC761431), dabrafenib (NSC764134), ravoxertinib (NSC781343), BMS-387032 (NSC767048), sotorasib (NSC818433), talazoparib (NSC767125) and afursertib (NSC778305), were obtained from the National Cancer Institute (NCI) Developmental Therapeutics Program Chemical Repository. The FDA-approved anticancer drug set is available from the NCI Developmental Therapeutics Program. […] The stock solutions were prepared in dimethyl sulfoxide (DMSO, Sigma-Aldrich, St. Louis, MO, cat. D2650) at 800-fold the tested concentration and stored at -70 degrees C prior to their use. All drugs and investigational agents were tested over a range starting from a high concentration at or near the clinical Cmax and decreasing in half-log increments. If the clinical Cmax for an agent had not been determined, the highest concentration tested was 10 microM.
NCI60 Cell Culture. NCI60 cell lines were obtained from the NCI Developmental Therapeutics Program Tumor Repository. For each lot of cells, the Repository performed Applied Biosystems AmpFLSTR Identifiler testing with PCR amplification to confirm consistency with the published Identifier STR profile for each cell line. Cells were kept in continuous culture for no more than 20 passages. The optimal seeding densities for each of the cell lines at each time point assessed were determined prior to performing the concentration response studies. Briefly, the NCI60 human tumor lines were grown as monolayers in RPMI 1640 medium supplemented with 10% FBS and 2 mmol/L L-glutamine.
An additional 9 lines were from the NCI60 cell line panel including MDA-MB-231 breast carcinoma, MDA-MB-468 breast carcinoma, MCF7 breast carcinoma, Hs578T breast carcinoma, MALME-3M melanoma, SK-MEL-2 melanoma, SK-OV-3 ovarian carcinoma, DU-145 prostate carcinoma, PC-3 prostate carcinoma, all cell lines along with major genetic alterations are listed on Table 2. Pooled donor human umbilical vein endothelial cells (HUVEC, Lonza, cat. CC-2519) and human mesenchymal stem cells (hMSC, Lonza, cat. PT-2501) were purchased from Lonza (Walkersville, MD).
PDMR cell lines were grown in complete medium (DC medium): Dulbecco's modified Eagle's medium (DMEM)/F12 supplemented with 5% fetal bovine serum (FBS), 2 mM L-glutamine, 100 U/mL penicillin and 100 µg/ml streptomycin, 0.4 µg/ml hydrocortisone, 10 ng/ml epidermal growth factor (EGF) recombinant human protein, 24 µg/mL adenine, and 0.1 mg/mL primocin. During culture from frozen stock vials, PDMR cells were cultured in the same medium containing 10 µM Y-27632 (see Table 3). […]

SMILES: CCN1CCN(Cc2ccc(Nc3ncc(F)c(-c4cc(F)c5nc(C)n(C(C)C)c5c4)n3)nc2)CC1
- viability, T/C (compound alone 0.01 µM): 102 (2×), 115, 95.6, 96.2, 95.8, 90.1, 103, 82.4, 94, 97.1, 111, 106%
- viability, T/C (compound alone 0.0316 µM): 92.6, 103, 110, 96.6, 89.7, 95, 87, 112, 105, 92.1, 84.1, 93.5% (2×)
- viability, T/C (compound alone 0.316 µM): 100, 109, 102, 106, 97.8, 84, 104, 105, 112, 99.1, 91.5, 85.2, 103%
- viability, T/C (compound alone 1 µM): 68.7, 88.4, 76.9, 79.1, 78, 60.6, 81.4, 73.6, 71.9, 90.2, 86.6, 73.5, 82.8%

SMILES: CC(C)NCC(C(=O)N1CCN(c2ncnc3c2C(C)CC3O)CC1)c1ccc(Cl)cc1 (stereo not given)
- viability, T/C (compound alone 0.316 µM): 62.4, 83.1, 66.7, 66.3, 56.1, 63.8 (2×), 74, 70.3, 64.9, 56.4, 58, 66.6%
